{"source": "paper PMC5892938", "note": "The other results are listed elsewhere or left out. At the low end of the ranking the order means little.", "data": [{"target": "GST-SBP-SLBP (stem-loop binding protein) (UniProt Q14493)", "experiment": "targeted RNA Bind-n-Seq;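 note: DESeq read counts versus GST-SBP nonspecific binding control pulldown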", "details": "RBNS binding buffer: 25 mM Tris pH 7.5, 150 mM KCl, 3 mM MgCl2, 0.1% Tween, 0.5 mg/mL BSA, 1 mM DTT; 27 nM protein, 750 pM RNA pool; temperature not stated; high values mean tight binding", "values": [{"sequence": "GGUCACGUCUCAAUCAACUCAGUUUCAGGAGUUUACUCCUGCUUUUUCAACAGCUCGCAGUCAAG", "binding signal (log2 fold change)": -0.226}, {"sequence": "GGUCACGUCUCAAUCAACUCAUUUUCCAGGGAAAACCCUGGCAAUUUCAACAGCUCGCAGUCAAG", "binding signal (log2 fold change)": -0.0381}, {"sequence": "GGUCACGUCUCAAUCAACUCUUUCUCCAGGGAAAGCCCUGGUAUUCUCAACAGCUCGCAGUCAAG", "binding signal (log2 fold change)": -0.0417}, {"sequence": "GGUCACGUCUCAAUCAACUCCAAAGAGGGGGGGAAAACCCCUUUACCCUCCACUUCAACAGCUCGCAGUCAAG", "binding signal (log2 fold change)": -0.445}, {"sequence": "GGUCACGUCUCAAUCAACUCUAUUUCCAGGGAAAACCCUGGCUUUUUCAACAGCUCGCAGUCAAG", "binding signal (log2 fold change)": -0.0771}, {"sequence": "GGUCACGUCUCAAUCAACUCAUUUUCAGGAGUUUACUCCUGCUUUCUCAACAGCUCGCAGUCAAG", "binding signal (log2 fold change)": 0.119}, {"sequence": "GGUCACGUCUCAAUCAACUCAUCCUCAGGAGUUUUCUCCUGCUUAUUCAACAGCUCGCAGUCAAG", "binding signal (log2 fold change)": 0.0348}, {"sequence": "GGUCACGUCUCAAUCAACUCAUUUUCCAGGGAAACCCCUGGCAUUUUCAACAGCUCGCAGUCAAG", "binding signal (log2 fold change)": -0.139}, {"sequence": "GGUCACGUCUCAAUCAACUCUUUCCCAGGAGUUUUCUCCUGUUUAUUCAACAGCUCGCAGUCAAG", "binding signal (log2 fold change)": 0.00119}, {"sequence": "GGUCACGUCUCAAUCAACUCUAUCUCCAGGGAAAUCCCUGGCUAUCUCAACAGCUCGCAGUCAAG", "binding signal (log2 fold change)": -0.0333}, {"sequence": "GGUCACGUCUCAAUCAACUCUUCCCCCAGGGAAACCCCUGGUAAUUUCAACAGCUCGCAGUCAAG", "binding signal (log2 fold change)": -0.0954}, {"sequence": "GGUCACGUCUCAAUCAACUCUAGUCCCAGGGAAAACCCUGGUAAUUUCAACAGCUCGCAGUCAAG", "binding signal (log2 fold change)": -0.0556}, {"sequence": "GGUCACGUCUCAAUCAACUCAAAAGAGGGGGGGAAAACCCCUUUACCCUCAUAUUCAACAGCUCGCAGUCAAG", "binding signal (log2 fold change)": 0.449}, {"sequence": "GGUCACGUCUCAAUCAACUCAAUCUCAGGAGUUUCCUCCUGUUAAUUCAACAGCUCGCAGUCAAG", "binding signal (log2 fold change)": -0.0624}, {"sequence": "GGUCACGUCUCAAUCAACUCUAUCCCAGGAGUUUCCUCCUGUAUUCUCAACAGCUCGCAGUCAAG", "binding signal (log2 fold change)": 0.159}, {"sequence": "GGUCACGUCUCAAUCAACUCUUUCUCCAGGGAAAGCCCUGGUUAUUUCAACAGCUCGCAGUCAAG", "binding signal (log2 fold change)": -0.0896}, {"sequence": "GGUCACGUCUCAAUCAACUCUUCUCCCAGGGAAAUCCCUGGCUUUCUCAACAGCUCGCAGUCAAG", "binding signal (log2 fold change)": 0.0813}, {"sequence": "GGUCACGUCUCAAUCAACUCAUUUUCAGGAGUUUUCUCCUGUAUACUCAACAGCUCGCAGUCAAG", "binding signal (log2 fold change)": -0.00998}, {"sequence": "GGUCACGUCUCAAUCAACUCUAGUCCAGGAGUUUCCUCCUGUUUUUUCAACAGCUCGCAGUCAAG", "binding signal (log2 fold change)": -0.159}, {"sequence": "GGUCACGUCUCAAUCAACUCAUCUCCCAGGGAAAACCCUGGUUAAUUCAACAGCUCGCAGUCAAG", "binding signal (log2 fold change)": -0.0315}, {"sequence": "GGUCACGUCUCAAUCAACUCAUCCCCCAGGGAAAACCCUGGUUAUUUCAACAGCUCGCAGUCAAG", "binding signal (log2 fold change)": -0.183}, {"sequence": "GGUCACGUCUCAAUCAACUCAUCGCCAGGAGUUUUCUCCUGCUUUCUCAACAGCUCGCAGUCAAG", "binding signal (log2 fold change)": 0.12}, {"sequence": "GGUCACGUCUCAAUCAACUCUUUUUCAGGAGUUUCCUCCUGCAUUUUCAACAGCUCGCAGUCAAG", "binding signal (log2 fold change)": -0.0817}, {"sequence": "GGUCACGUCUCAAUCAACUCUACUUCAGGAGUUUCCUCCUGCUUUCUCAACAGCUCGCAGUCAAG", "binding signal (log2 fold change)": -0.0662}, {"sequence": "GGUCACGUCUCAAUCAACUCAACUUCCAGGGAAAGCCCUGGUUUUUUCAACAGCUCGCAGUCAAG", "binding signal (log2 fold change)": -0.0931}, {"sequence": "GGUCACGUCUCAAUCAACUCUCCUGAGGGGGGGAAAACCCCUUUACCCUCUUUAUCAACAGCUCGCAGUCAAG", "binding signal (log2 fold change)": -0.172}, {"sequence": "GGUCACGUCUCAAUCAACUCAUUCUCCAGGGAAAGCCCUGGCAAUCUCAACAGCUCGCAGUCAAG", "binding signal (log2 fold change)": 0.00165}, {"sequence": "GGUCACGUCUCAAUCAACUCUAUUCCCAGGGAAAUCCCUGGCUUACUCAACAGCUCGCAGUCAAG", "binding signal (log2 fold change)": 0.0785}, {"sequence": "GGUCACGUCUCAAUCAACUCAUCGUCAGGAGUUUACUCCUGUAUACUCAACAGCUCGCAGUCAAG", "binding signal (log2 fold change)": 0.13}, {"sequence": "GGUCACGUCUCAAUCAACUCUAACGAGGGGGGGAAAACCCCUUUACCCUCCAAAUCAACAGCUCGCAGUCAAG", "binding signal (log2 fold change)": -0.365}, {"sequence": "GGUCACGUCUCAAUCAACUCUUUCCCAGGAGUUUUCUCCUGCAUUCUCAACAGCUCGCAGUCAAG", "binding signal (log2 fold change)": 0.123}, {"sequence": "GGUCACGUCUCAAUCAACUCUACAGAGGGGGGGAAAACCCCUUUACCCUCAAUUUCAACAGCUCGCAGUCAAG", "binding signal (log2 fold change)": -0.282}, {"sequence": "GGUCACGUCUCAAUCAACUCUAGUCCAGGAGUUUCCUCCUGUUAAUUCAACAGCUCGCAGUCAAG", "binding signal (log2 fold change)": 0.0611}, {"sequence": "GGUCACGUCUCAAUCAACUCCCAAGAGGGGGGGAAAACCCCUUUACCCUCCGCAUCAACAGCUCGCAGUCAAG", "binding signal (log2 fold change)": 0.167}, {"sequence": "GGUCACGUCUCAAUCAACUCAAUUCCAGGAGUUUUCUCCUGCAUAGUCAACAGCUCGCAGUCAAG", "binding signal (log2 fold change)": 0.0625}, {"sequence": "GGUCACGUCUCAAUCAACUCUAUCUCAGGAGUUUUCUCCUGUUUUGUCAACAGCUCGCAGUCAAG", "binding signal (log2 fold change)": 0.105}, {"sequence": "GGUCACGUCUCAAUCAACUCUUCCCCAGGAGUUUACUCCUGUUUUCUCAACAGCUCGCAGUCAAG", "binding signal (log2 fold change)": -0.0387}, {"sequence": "GGUCACGUCUCAAUCAACUCUUUUCCCAGGGAAAUCCCUGGCUAUGUCAACAGCUCGCAGUCAAG", "binding signal (log2 fold change)": -0.0827}, {"sequence": "GGUCACGUCUCAAUCAACUCCUAAGAGGGGGGGAAAACCCCUUUACCCUCAUCGUCAACAGCUCGCAGUCAAG", "binding signal (log2 fold change)": -0.12}, {"sequence": "GGUCACGUCUCAAUCAACUCUAUCCCAGGAGUUUACUCCUGUAAUCUCAACAGCUCGCAGUCAAG", "binding signal (log2 fold change)": -0.0349}, {"sequence": "GGUCACGUCUCAAUCAACUCAAUCCCAGGAGUUUGCUCCUGUAUUUUCAACAGCUCGCAGUCAAG", "binding signal (log2 fold change)": -0.146}, {"sequence": "GGUCACGUCUCAAUCAACUCCUCCGAGGGGGGGAAAACCCCUUUACCCUCAUCUUCAACAGCUCGCAGUCAAG", "binding signal (log2 fold change)": -0.328}, {"sequence": "GGUCACGUCUCAAUCAACUCUAUCCCAGGAGUUUACUCCUGCAAUUUCAACAGCUCGCAGUCAAG", "binding signal (log2 fold change)": -0.0338}, {"sequence": "GGUCACGUCUCAAUCAACUCAACUCCCAGGGAAAGCCCUGGUUUUUUCAACAGCUCGCAGUCAAG", "binding signal (log2 fold change)": -0.328}, {"sequence": "GGUCACGUCUCAAUCAACUCUUCUCCCAGGGAAAUCCCUGGCAUAUUCAACAGCUCGCAGUCAAG", "binding signal (log2 fold change)": -0.07}, {"sequence": "GGUCACGUCUCAAUCAACUCUUUCUCCAGGGAAAACCCUGGUUAAUUCAACAGCUCGCAGUCAAG", "binding signal (log2 fold change)": -0.246}, {"sequence": "GGUCACGUCUCAAUCAACUCUACUUCCAGGGAAAACCCUGGCAUUCUCAACAGCUCGCAGUCAAG", "binding signal (log2 fold change)": 0.031}, {"sequence": "GGUCACGUCUCAAUCAACUCAUCGUCAGGAGUUUUCUCCUGUUAUUUCAACAGCUCGCAGUCAAG", "binding signal (log2 fold change)": 0.192}]}]}
